# According to a collection of fitness landscapes (doi:10.1126/science.1257360):
# Some of the results follow.
# B1: PhoQ; a variant is named by its letters at X, in order, P23837 (parent)
# chain: MKKLLRLFFPLSLRVRFLLATAAVVLVLSLAYGMVALIGYSVSFDKTTFRLLRGESNLFYTLAKWENNKLHVELPENIDKQSPTMTLIYDENGQLLWAQRDVPWLMKMIQPDWLKSNGFHEIEADVNDTSLLLSGDHSIQQQLQEVREDDDDAEMTHSVAVNVYPATSRMPKLTIVVVDTIPVELKSSYMVWSWFIYVLSANLLLVIPLLWVAAWWSLRPIEALAKEVRELEEHNRELLNPATTRELTSLVRNLNRLLKSERERYDKYRTTLTDLTHSLKTPLXXLQXXLRSLRSEKMSVSDAEPVMLEQISRISQQIGYYLHRASMRGGTLLSRELHPVAPLLDNLTSALNKVYQRKGVNISLDISPEISFVGEQNDFVEVMGNVLDNACKYCLEFVEISARQTDEHLYIVVEDDGPGIPLSKREVIFDRGQRVDTLRPGQGVGLAVAREITEQYEGKIVAGESMLGGARMEVIFGRQHSAPKDE
# Variants of: B1
# Assay: enrichment ratio after two sorts for PhoP signalling (ratio (wild type AVST 3.29)); higher = more functional
# Settings: with PhoP (E. coli)
row,Variant,enrichment ratio
1,TMAA,8.44
2,KSSG,≤ 0.25
3,YFPW,≤ 0.25
4,IGYN,0.356
5,EIPK,≤ 0.25
6,HYVK,≤ 0.25
7,YCGF,≤ 0.25
8,AQRW,≤ 0.25
9,NVRM,≤ 0.25
10,MQCR,≤ 0.25
11,KFNC,≤ 0.25
12,GSHS,≤ 0.25
13,SCLD,0.618
14,IFGI,≤ 0.25
15,HKVT,≤ 0.25
16,AAAN,≤ 0.25
17,NPEP,≤ 0.25
18,LVVA,≤ 0.25
19,IFEH,≤ 0.25
20,VEAG,4.31
21,PHIQ,≤ 0.25
22,PFPT,≤ 0.25
23,QKFC,≤ 0.25
24,SEFP,≤ 0.25
25,RELI,≤ 0.25
26,PSRF,≤ 0.25

row,Variant,enrichment ratio
1,EICV,≤ 0.25
2,QYMP,≤ 0.25
3,GEEA,≤ 0.25
4,PMIG,≤ 0.25
5,FPCI,≤ 0.25
6,PAEF,≤ 0.25
7,YTNA,≤ 0.25
8,RVEQ,≤ 0.25
9,MRAR,≤ 0.25
10,KNCE,≤ 0.25
11,KGCI,≤ 0.25
12,DQEL,≤ 0.25
13,MMPN,≤ 0.25
14,VMHD,≤ 0.25
15,RYGT,≤ 0.25
16,MSPV,≤ 0.25
17,ARCS,0.527
18,AVVC,≤ 0.25
19,QVAI,≤ 0.25
20,NIFK,≤ 0.25
21,ISDP,≤ 0.25
22,IMMK,≤ 0.25
23,LGLA,≤ 0.25
24,TMDT,≤ 0.25
25,KGIA,≤ 0.25
26,VGCM,0.916

row,Variant,enrichment ratio
1,RVYG,≤ 0.25
2,AFAA,≤ 0.25
3,DAIT,≤ 0.25
4,KAIW,≤ 0.25
5,QFKM,≤ 0.25
6,VFDL,≤ 0.25
7,METC,45.8
8,KRHT,≤ 0.25
9,SEHW,≤ 0.25
10,NHWS,≤ 0.25
11,TAPD,≤ 0.25
12,YIYN,≤ 0.25
13,IRKE,≤ 0.25
14,LNGR,≤ 0.25
15,MFEF,0.864
16,KVHV,≤ 0.25
17,WRLG,≤ 0.25
18,YLWW,≤ 0.25
19,LQGT,≤ 0.25
20,RVFQ,≤ 0.25
21,HNMY,≤ 0.25
22,IEQV,≤ 0.25
23,YMIR,≤ 0.25
24,AYSA,≤ 0.25
25,MHLI,≤ 0.25
26,FGWM,≤ 0.25

row,Variant,enrichment ratio
1,FLHV,≤ 0.25
2,FLNY,≤ 0.25
3,WQMR,≤ 0.25
4,TSKR,≤ 0.25
5,ERPQ,≤ 0.25
6,FFWR,≤ 0.25
7,VANE,≤ 0.25
8,TVYN,6.13
9,PSWH,≤ 0.25
10,SRLP,≤ 0.25
11,RCDI,≤ 0.25
12,PRSA,≤ 0.25
13,VDWG,≤ 0.25
14,WYRT,≤ 0.25
15,IDFQ,≤ 0.25
16,LQSG,≤ 0.25
17,WDIK,≤ 0.25
18,KFIN,≤ 0.25
19,MLLV,≤ 0.25
20,SDSI,1.29
21,PYAI,≤ 0.25
22,SKWP,≤ 0.25
23,DMGF,≤ 0.25
24,EYEH,≤ 0.25
25,VQRL,≤ 0.25
26,YQQY,≤ 0.25

row,Variant,enrichment ratio
1,SHWM,≤ 0.25
2,VFGD,≤ 0.25
3,GCWD,≤ 0.25
4,ALQR,≤ 0.25
5,LAHF,≤ 0.25
6,TTRL,1.01
7,DHMF,≤ 0.25
8,IWSC,≤ 0.25
9,PIWY,≤ 0.25
10,EQGS,≤ 0.25
11,TPCD,≤ 0.25
12,PHRK,≤ 0.25
13,IEGF,≤ 0.25
14,SELE,21.5
15,NGYW,≤ 0.25
16,MINY,≤ 0.25
17,YKCQ,≤ 0.25
18,ANWR,≤ 0.25
19,RDHK,≤ 0.25
20,RQVW,≤ 0.25
21,DNMI,≤ 0.25
22,VEER,≤ 0.25
23,FNNE,≤ 0.25
24,LHQP,≤ 0.25
25,NKHK,≤ 0.25
26,IDNV,≤ 0.25

row,Variant,enrichment ratio
1,MQFM,12.3
2,RAQA,≤ 0.25
3,SNYW,≤ 0.25
4,MEQC,≤ 0.25
5,IHFC,≤ 0.25
6,MLTW,≤ 0.25
7,IWYT,≤ 0.25
8,FALC,6.6
9,HQGF,≤ 0.25
10,HAHP,≤ 0.25
11,VHYD,≤ 0.25
12,PRWW,≤ 0.25
13,YTMT,0.265
14,MGIW,≤ 0.25
15,HCGQ,≤ 0.25
16,KTPD,≤ 0.25
17,NDCT,≤ 0.25
18,YHPC,≤ 0.25
19,NGVL,≤ 0.25
20,GLPV,≤ 0.25
21,TMNV,3.3
22,DYMV,≤ 0.25
23,RHQR,≤ 0.25
